The other results are listed elsewhere or left out. Repeats are few or missing, and single values can be far off.
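Also: cell number obtained by counting DAPI-stained nuclei in high-throughput microscope images with image analysis software, screen run in 1,536-well plates.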

The subject of this experiment is SkMel28. Nature of the experiment: cell count relative to DMSO control; melanoma cells; higher = more viable cells. The conditions noted are these: library dose: low library concentration; 72 h.
In turn, `Cn1c(Nc2ccc(C(F)(F)F)cc2)nc2cc(Oc3ccnc(-c4ncc(C(F)(F)F)[nH]4)c3)ccc21` + O=C(O)c1ccc(-c2c[nH]c3ncc(-c4ccccc4)cc23)cc1C1CCCC1 [GSK650394] (first compound 0.08 µM, partner dose 0.16 µM) showed a cell count of 52.6%.

Consider `OCc1c[nH]c2ccccc12` [Indole-3-carbinol] + CCN(CC)CCCCNc1ncc2cc(-c3cc(OC)cc(OC)c3)c(NC(=O)NC(C)(C)C)nc2n1 [PD173074] (first compound 0.8 µM, partner dose 0.1 µM), for which the cell count came to 113%.

The molecule `Clc1ccc(Nc2nnc(Cc3ccncc3)c3ccccc23)cc1` [vatalanib] + O=C(Nc1ccccc1)c1cc([N+](=O)[O-])ccc1Cl [GW9662] (first compound 2 µM, partner dose 2 µM) registered a cell count of 81.5%.

With `Cn1c(Nc2ccc(C(F)(F)F)cc2)nc2cc(Oc3ccnc(-c4ncc(C(F)(F)F)[nH]4)c3)ccc21` + C=CCn1c(=O)c2cnc(Nc3ccc(N4CCN(C)CC4)cc3)nc2n1-c1cccc(C(C)(C)O)n1 [MK1775] (first compound 0.08 µM, partner dose 0.02 µM), the cell count was found to be 44.9%.

On to `OCc1c[nH]c2ccccc12` [Indole-3-carbinol] + CN(C)S(=O)(=O)c1ccc2c(c1)/C(=C/c1cc3c([nH]1)CCCC3)C(=O)N2 [SU6656] (first compound 0.8 µM, partner dose 0.4 µM), for which the cell count was 85%.

As for `COCC[n+]1c2c(n(Cc3cnccn3)c1C)C(=O)c1ccccc1C2=O` + NC(=O)Nc1cc(-c2cccc(F)c2)sc1C(=O)N[C@H]1CCCNC1 [AZD7762] (first compound 0.0004 µM, partner dose 0.02 µM), the cell count came to 103%.

As for `Nc1cccc2c1CN(C1CCC(=O)NC1=O)C2=O` (stereo not drawn) [lenalidomide] + O=C(O)c1ccc(-c2c[nH]c3ncc(-c4ccccc4)cc23)cc1C1CCCC1 [GSK650394] (first compound 1 µM, partner dose 0.16 µM), the cell count turned out to be 109%.

Turning to `COCC[n+]1c2c(n(Cc3cnccn3)c1C)C(=O)c1ccccc1C2=O` + Cn1cncc1[C@@](N)(c1ccc(Cl)cc1)c1ccc2c(c1)c(-c1cccc(Cl)c1)cc(=O)n2C [tipifarnib] (first compound 0.0004 µM, partner dose 0.01 µM), the cell count was found to be 81.4%.
